For 40 compounds, cytotoxicity call and growth inhibition call results are on record in the antibiotic and cytotoxicity screens of Wong et al. (2023).

The other results are listed elsewhere or left out.

The first experiment relates to HepG2. Nature of the experiment: cytotoxicity call (relative viability < 0.9). The conditions noted are these: 10 µM.
For `C[C@@H]1CN([C@@H](C)CO)C(=O)Cc2cc(NC(=O)Nc3ccc(C(F)(F)F)cc3)ccc2O[C@@H]1CN(C)Cc1ccc(C(=O)O)cc1`, the cytotoxicity call is “inactive”.

With `O=C(N1CCOCC1)[C@]1(CCS(=O)(=O)c2ccccc2)N=C(c2ccc(OCCCO)cc2)O[C@@H]1c1ccccc1`, the cytotoxicity call was “inactive”. Take `Cc1c(OCC(F)(F)F)ccnc1CS(=O)c1nc2ccccc2[nH]1` (centres undefined): the cytotoxicity call is “inactive”. With `COc1ccc(NC(=O)Nc2ccc3c(c2)C(=O)N([C@H](C)CO)C[C@H](C)[C@@H](CN(C)C(=O)Nc2cccc4ccccc24)O3)cc1`, the cytotoxicity call is “inactive”. In the case of `C[C@@H]1CCCCO[C@H](CN(C)C(=O)Nc2ccc(C(F)(F)F)cc2)[C@H](C)CN([C@@H](C)CO)C(=O)c2cc(NS(=O)(=O)c3ccc(Cl)cc3)ccc2O1`, the cytotoxicity call is “inactive”. Same read-out and setting: the result for `C[C@@H]1CCCCO[C@@H](CN(C)Cc2ccncc2)[C@H](C)CN([C@H](C)CO)C(=O)c2cc(NS(C)(=O)=O)ccc2O1` reads “inactive”; that for `Nc1cc(CO)ccn1`, “inactive”. Still for that read-out and setting: the entry for `CC(=O)N[C@@H](C=O)[C@@H](O)[C@H](O)[C@H](O)CO` is “inactive”; for `C[C@@H]1CCCCO[C@H](CN(C)CC2CCCCC2)[C@H](C)CN([C@@H](C)CO)C(=O)c2cc(NC(=O)Nc3ccc(F)cc3)ccc2O1` it is “active”.

In another experiment the test system is S. aureus RN4220. Nature of the experiment: growth inhibition call (relative growth <= 0.2). The conditions noted are these: 50 µM.
As for `C[C@@H]1CCCCO[C@@H](CN(C)C(=O)CCC(F)(F)F)[C@@H](C)CN([C@@H](C)CO)C(=O)c2cc(NS(=O)(=O)c3ccc(F)cc3)ccc2O1`, the growth inhibition call was “inactive”. Take `Cc1ccc(S(=O)(=O)Nc2ccc3c(c2)C(=O)N([C@@H](C)CO)C[C@@H](C)[C@@H](CN(C)C(=O)Nc2ccc(C(F)(F)F)cc2)O3)cc1`: the growth inhibition call was “inactive”. `C[C@@H]1CN([C@H](C)CO)C(=O)c2cc(NC(=O)Cc3ccccc3)ccc2O[C@@H](C)CCCCO[C@@H]1CN(C)C(=O)Cc1ccccc1`: the growth inhibition call is “inactive”. In the case of `CN(C)CC(=O)N[C@@H]1C=C[C@@H](CC(=O)NCCN2CCCCC2)O[C@@H]1CO`, the growth inhibition call is “inactive”. On to `Cc1ccc(S(=O)(=O)Nc2cccc3c2O[C@@H](CN(C)C(=O)NC(C)C)[C@H](C)CN([C@@H](C)CO)C3=O)cc1`, for which the growth inhibition call was “inactive”. Take `C[C@H]1CCCCO[C@H](CN(C)Cc2ccc3c(c2)OCO3)[C@@H](C)CN([C@@H](C)CO)C(=O)c2cc(NC(=O)Nc3cccc4ccccc34)ccc2O1`: the growth inhibition call is “inactive”. For `CCC=CCC=CCC=CCC=CCC=CCC=CCCC(=O)O`, the growth inhibition call is “inactive”. The same measure, in the same setting: the result for `C[C@H](CO)N1C[C@H](C)[C@H](CN(C)Cc2ccc(C(=O)Nc3ccccc3N)cc2)Oc2c(NC(=O)Nc3cccc4ccccc34)cccc2C1=O` reads “inactive”.

With `Cc1ccc2oc(=O)cc(Cl)c2c1`, the growth inhibition call was “inactive”.

`Nc1ccc(S(=O)(=O)[N-]c2cnc3ccccc3n2)cc1.[Na+]`: the growth inhibition call was “inactive”. For the compound `CC(=O)O[C@@H]1[C@@H](OC(C)=O)[C@@H]2OC[C@@H](O2)[C@H]1OC(C)=O`, the growth inhibition call is “inactive”. Same read-out and setting: the entry for `Nc1ncn(Cc2ccccc2)n1` is “inactive”; for `C[C@H](CO)N1C[C@H](C)[C@@H](CN(C)Cc2ccc(C(=O)O)cc2)Oc2c(NC(=O)c3ccc(-c4nccs4)cc3)cccc2C1=O` it is “inactive”; for `C[C@@H]1CN([C@H](C)CO)C(=O)Cc2cc(NC(=O)Cn3cnnn3)ccc2O[C@@H]1CN(C)S(=O)(=O)c1cccs1` it is “inactive”.

Regarding `C[C@@H]1CN([C@H](C)CO)C(=O)c2cc(N(C)C)ccc2O[C@H]1CN(C)S(C)(=O)=O`, the growth inhibition call is “inactive”.

As for `C[C@H]1CN([C@@H](C)CO)C(=O)c2cccc(NS(C)(=O)=O)c2O[C@H]1CN(C)C(=O)Nc1ccc2c(c1)OCO2`, the growth inhibition call was “inactive”.

On to `C[C@H](CO)N1C[C@H](C)[C@@H](CN(C)Cc2ccc(Cl)c(Cl)c2)Oc2c(NC(=O)NC3CCCCC3)cccc2C1=O`, for which the growth inhibition call was “inactive”.

Take `CNCc1cc2ccccc2s1`: the growth inhibition call was “inactive”. The same measure, in the same setting: the entry for `CC[C@@H](Sc1n[nH]c(=O)[nH]c1=O)C(=O)O` is “inactive”. The same measure, in the same setting: the entry for `Cc1noc(C)c1NC(=O)N(C)C[C@H]1Oc2ccc(NC(=O)NC(C)C)cc2C(=O)N([C@@H](C)CO)C[C@@H]1C` is “inactive”; for `Cn1cc(-c2nc(N[C@@H]3CCCC[C@@H]3N)c(F)c3c2C(=O)NC3)cn1` it is “inactive”.

With `COCCOC(=O)N1C(=O)[C@@]2(c3cc(C#CC4=CCCCC4)ccc31)[C@H](C(=O)N1CCc3cc(OC)c(OC)cc3C1)[C@H]1C(=O)O[C@H](c3ccccc3)[C@H](c3ccccc3)N1[C@@H]2c1ccccc1OCCO`, the growth inhibition call was “inactive”. Same read-out and setting: the result for `Cc1noc(C)c1S(=O)(=O)Nc1ccc2c(c1)C(=O)N([C@@H](C)CO)C[C@@H](C)[C@@H](CN(C)S(C)(=O)=O)O2` reads “inactive”; that for `C[C@@H]1CCCCO[C@@H](CN(C)C(=O)Cc2ccccc2)[C@@H](C)CN([C@H](C)CO)C(=O)c2cc(NC(=O)Cc3ccccc3)ccc2O1`, “inactive”. `COc1ccc(NC(=O)Nc2ccc3c(c2)C(=O)N([C@@H](C)CO)C[C@@H](C)[C@@H](CN(C)C(=O)Nc2ccc(C(F)(F)F)cc2)O3)cc1`: the growth inhibition call is “inactive”. Take `C[C@@H]1CN([C@H](C)CO)C(=O)CCCn2cc(nn2)CO[C@@H]1CN(C)S(=O)(=O)c1ccc(-n2cccn2)cc1`: the growth inhibition call is “inactive”.

On to `C[C@H]1CN([C@@H](C)CO)S(=O)(=O)c2ccc(C#Cc3cccnc3)cc2O[C@@H]1CN(C)CC1CCOCC1`, for which the growth inhibition call is “inactive”. In the case of `Cc1noc(C)c1NC(=O)Nc1ccc2c(c1)C(=O)N([C@H](C)CO)C[C@H](C)[C@H](CN(C)Cc1ccccc1)OCCCC[C@@H](C)O2`, the growth inhibition call was “inactive”. Same read-out and setting: the result for `C[C@@H]1CN([C@@H](C)CO)C(=O)c2cc(NC(=O)C3CCCCC3)ccc2O[C@@H](C)CCCCO[C@@H]1CN(C)S(=O)(=O)c1ccc(Cl)cc1` reads “inactive”; that for `O=C(CCCCCCC(=O)Nc1ccc([C@H]2O[C@@H](CSc3ccccc3)C[C@H](c3ccccc3)O2)cc1)NO`, “inactive”; that for `C[C@H](CO)N1C[C@H](C)[C@@H](CN(C)S(=O)(=O)c2ccccc2)Oc2ccc(NC(=O)Cc3ccccc3)cc2CC1=O`, “inactive”.

Turning to `C[C@@H]1CN([C@@H](C)CO)C(=O)Cc2cc(NC(=O)Nc3ccc(C(F)(F)F)cc3)ccc2O[C@@H]1CN(C)Cc1ccc(C(=O)O)cc1`, the growth inhibition call was “inactive”. The same measure, in the same setting: the result for `O=C(N1CCOCC1)[C@]1(CCS(=O)(=O)c2ccccc2)N=C(c2ccc(OCCCO)cc2)O[C@@H]1c1ccccc1` reads “inactive”. Still for that read-out and setting: the entry for `Cc1c(OCC(F)(F)F)ccnc1CS(=O)c1nc2ccccc2[nH]1` (centres undefined) is “inactive”; for `COc1ccc(NC(=O)Nc2ccc3c(c2)C(=O)N([C@H](C)CO)C[C@H](C)[C@@H](CN(C)C(=O)Nc2cccc4ccccc24)O3)cc1` it is “inactive”; for `C[C@@H]1CCCCO[C@H](CN(C)C(=O)Nc2ccc(C(F)(F)F)cc2)[C@H](C)CN([C@@H](C)CO)C(=O)c2cc(NS(=O)(=O)c3ccc(Cl)cc3)ccc2O1` it is “inactive”.

`C[C@@H]1CCCCO[C@@H](CN(C)Cc2ccncc2)[C@H](C)CN([C@H](C)CO)C(=O)c2cc(NS(C)(=O)=O)ccc2O1`: the growth inhibition call was “inactive”. Take `Nc1cc(CO)ccn1`: the growth inhibition call was “inactive”.

`CC(=O)N[C@@H](C=O)[C@@H](O)[C@H](O)[C@H](O)CO`: the growth inhibition call was “inactive”. `C[C@@H]1CCCCO[C@H](CN(C)CC2CCCCC2)[C@H](C)CN([C@@H](C)CO)C(=O)c2cc(NC(=O)Nc3ccc(F)cc3)ccc2O1`: the growth inhibition call was “inactive”.
